Measurements reported in PubChem BioAssay AID1240 (Sanford-Burnham Center for Chemical Genomics, 2008).
Hit rate of the full screen: of about 50,000 compounds, about 800 (1.6%) showed an effect of 50% or more. Some of the results follow.

Target: Bcl-2-like protein 10 (Homo sapiens) (UniProt Q9HD36)
Experiment: Phenotype converters, Bcl-B/TR3 peptide binding displacement, primary biochemical FP (AID 1240);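 further: 0% = Bcl-B with tracer peptide and DMSO and 100% = tracer peptide lacking Bcl-B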
Conditions: GST-Bcl-B / FITC-TR3 peptide fluorescence polarization; stronger effect = higher value; compound at 3.75 mg/L

UniProt Q9HD36, sequence (Q9HD36 whole entry, looked up): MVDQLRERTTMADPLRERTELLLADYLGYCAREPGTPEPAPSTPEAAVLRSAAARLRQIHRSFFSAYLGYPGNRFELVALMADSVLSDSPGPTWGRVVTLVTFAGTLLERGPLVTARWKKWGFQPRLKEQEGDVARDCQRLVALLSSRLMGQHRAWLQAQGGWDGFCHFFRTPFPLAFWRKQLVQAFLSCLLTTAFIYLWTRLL

Row | Compound | displacement [%]
1 | CCCCOC(=O)COc1cc2oc(=O)c3c(c2cc1Cl)CCC3 | 6.3
2 | O=C(ON=C1c2ccccc2-c2ccccc21)c1ccc(Cl)cc1Cl | 13.1
3 | O=C(CCc1ccccc1O)N/N=C/c1ccc(Sc2cccc3cccnc23)o1 | 7.2
4 | CCOc1ccc(N2C(=O)NC(=O)/C(=C\c3ccc(I)o3)C2=O)cc1 | 2.7
5 | COC(=O)c1sccc1NC(=O)c1c(-c2c(Cl)cccc2Cl)noc1C | 15
6 | CCc1cc(C(=O)N/N=C/c2ccc(O)cc2O)c2ccccc2n1 | -16.7
7 | N#C/C(=C\c1ccc(-c2ccc(Br)cc2)o1)c1nc2ccccc2[nH]1 | 2.1
8 | Cc1cc(OCC(=O)NCc2ccncc2)ccc1Br | 7.4
9 | O=S(=O)(Oc1ccc2ccccc2c1)c1ccc(F)cc1 | 8.2
10 | CCCC(=O)NC(c1ccc(OC)c(OC)c1)c1c(OC(=O)COc2ccccc2)ccc2ccccc12 (stereo not drawn) | 7.4
11 | O=C(COc1ccc2ccccc2c1)Nc1ccc(N2CCOCC2)c(Cl)c1 | -2.7
12 | CC(C)C1=NN(C(=O)c2ccccc2)C(O)(C(C)(C)C)C1 (stereo not drawn) | 7.9
13 | COc1ccc(OC)c(NC(=O)c2ccc(OC)cc2OC)c1 | -1.9
14 | O=C(Nc1ccc(NC(=O)c2cccc(Br)c2)cc1)c1ccccc1 | 0
15 | CCOC(=O)c1c(NC(=O)Cc2ccc(OC)cc2)sc(C(=O)Nc2ccccc2)c1C | -8.3
16 | CC(=O)Nc1ccc(S(=O)(=O)N(Cc2ccccc2)c2ccccn2)cc1 | 3.8
17 | COc1cc(C=C2C(=O)N(c3ccc(C)cc3)C(=S)N(c3ccc(C)cc3)C2=O)ccc1O | 9
18 | CC1SC(c2ccc(OCc3ccccc3)cc2)NC1=O (stereo not drawn) | -9.7
19 | Cc1cccc(C(=O)NNC(=O)COc2ccccc2Cl)c1O | -3.3
20 | O=C1CC(N2CCN(c3ccccc3F)CC2)C(=O)N1c1cccc(Cl)c1 (stereo not drawn) | -7.4
21 | CCOc1ccc(S(=O)(=O)n2ccnc2C(C)C)c2ccccc12 | 13
22 | Cc1ccc(NC(=O)C(=O)NCC(C)C)c(C)c1 | 13.5
23 | COc1cc(S(=O)(=O)n2ccnc2C)c(OC)cc1Cl | 2.2

Row | Compound | displacement [%]
24 | CC(=O)c1ccc(NC(=O)CSC(N)=O)cc1 | 3.5
25 | C=CCNC(=O)CN(c1ccc(OC)c(Cl)c1)S(C)(=O)=O | -4.4
26 | O=C1CSC(=O)N1CNc1ccccc1Cl | 15
27 | CC1=C(C(=O)OCCc2ccccc2)C(c2ccccc2OCc2ccccc2)C2=C(CCCC2=O)N1 (stereo not drawn) | -6
28 | COC(=O)C1=C(C)NC2=C(C(=O)CC(c3ccccc3)C2)C1c1ccccc1 (stereo not drawn) | 3.3
29 | COC(=O)c1c(C)oc2ccc(OCc3cccc(F)c3)cc12 | 9.8
30 | Cc1ccc(C(=O)Nc2ccc(-c3nc4ncccc4o3)cc2)cc1C | 21.5
31 | CS(=O)(=O)N1CCN(c2ccc(Cl)cc2[N+](=O)[O-])CC1 | -2.7
32 | O=C(N/N=C/c1cc([N+](=O)[O-])c(N2CCOCC2)cc1N1CCOCC1)Nc1ccccc1 | -3.3
33 | COc1ccc(C(=O)Nc2ccc(-c3ccc(NC(=O)c4ccc(OC)cc4)c(OC)c3)cc2OC)cc1 | 13.8
34 | COc1ccccc1NC(=O)C1=C(C)NC(=S)NC1c1ccccc1OC (stereo not drawn) | 6
35 | CCOC(=O)N1CCN(C(=O)COc2ccc(Cl)cc2Br)CC1 | -2.4
36 | Cc1ccc(SCCc2nnc(N)s2)cc1 | 2.5
37 | COc1cc(/C=C2\SC(N)=NC2=O)cc(Br)c1OCc1cccc2ccccc12 | -62.1
38 | Cc1ccc(N2C(=O)C(Cl)=C(Nc3cccc(C)c3C)C2=O)cc1 | -5
39 | COc1cc(C(=O)Nc2c(C(C)C)cccc2C(C)C)cc(OC)c1OC | -2
40 | Cc1ccc(-c2csc(/C(C#N)=C/c3sccc3C)n2)c(C)c1 | 69.3
41 | O=[N+]([O-])c1ccccc1C=NCCC12CC3CC(CC(C3)C1)C2 | 5.1
42 | O=C1Nc2c(S(=O)(=O)N3CCOCC3)cc(S(=O)(=O)N3CCOCC3)c3cccc1c23 | -0.3
43 | O=C(CSc1ncn[nH]1)NC(c1ccccc1)c1ccccc1 | 10.6
44 | c1ccc(-c2nnc(N3CCOCC3)c3ccccc23)cc1 | -3.6
45 | CCCOc1ccccc1/C=C1\N=C(c2ccccc2)OC1=O | 64
46 | CCOC(=O)c1[nH]cnc1C(=O)N1CCCCC1 | 14.5

Row | Compound | displacement [%]
47 | CCOc1cc(/C=N/NC(=O)c2cc(C)[nH]n2)ccc1OC(=O)c1cccc2ccccc12 | -17.8
48 | O=C1NC(=O)N(c2ccccc2)C(=O)/C1=C\c1ccccc1OCc1ccc(F)cc1 | -16.6
49 | Cc1cc(NC(=O)c2ccc(I)cc2)ccc1NC(=O)c1ccccc1 | 2.6
50 | CCC1=NN(C(=O)Cc2ccc(OC)cc2)C(O)(c2ccncc2)C1 (stereo not drawn) | -8.9
51 | COc1ccc(C(=O)Nc2ccc(NC(=O)c3cc4ccccc4o3)c(OC)c2)cc1Br | -2.8
52 | Cc1ccc(C)n1-n1cnc2scc(-c3ccccc3)c2c1=O | 25.2
53 | CCOC(=O)c1c(C)oc2cc(Br)c(OC(=O)c3ccc([N+](=O)[O-])cc3)cc12 | 8.5
54 | COc1ccc(Cc2noc(COc3ccc(Cl)cc3)n2)cc1 | 2.7
55 | O=C(O)CCC(=O)N1N=C(c2c(-c3ccccc3)c3cc(Cl)ccc3[nH]c2=O)CC1c1ccccc1 (stereo not drawn) | -2.6
56 | O=C(Nc1c(C(=O)N2CCCCC2)cnn1-c1ccccc1)c1cccc(F)c1 | 0.8
57 | CCOC(=O)C1=C(C)N(CCOC)C(=O)/C1=C\c1sccc1C | 11.3
58 | COc1ccc(OC)c(C2NC(=O)NC(C)=C2C(=O)Nc2ccc(C)cc2)c1 (stereo not drawn) | -1.4
59 | COc1ccc(OC)c(NC(=O)c2c(C)c(-c3ccccc3)nc3ccccc23)c1 | 2.7
60 | CCC(C)c1ccc(OCCOc2c(Cl)cc(/C=N/n3cnnc3)cc2OC)cc1 (stereo not drawn) | -12.9
61 | COC(=O)CNC(=O)Cc1ccccc1[N+](=O)[O-] | 2.1
62 | CCOC(=O)c1ccccc1N/C=C(\C#N)C(=O)NCc1ccccc1 | 10.1
63 | COc1ccccc1-n1cnc2cc(Nc3nnc(C)c4ccccc34)ccc21 | 7.8
64 | Cn1cnc2c1c(=O)n(Cc1ccc(Br)cc1)c(=O)n2C | -2
65 | COC(=O)c1sc(NC(=O)COc2ccc3ccccc3c2)c(C(N)=O)c1C | -1.6
66 | O=C(NCc1ccccn1)c1ccc(I)cc1 | 11.4
67 | C/C(=N\Nc1nc(-c2ccccc2)nc(C)c1C)c1ccc(Br)cc1 | -10.3
68 | O=C(c1ccc(S(=O)(=O)N2CCOCC2)cc1)N1CCN(CCN2C(=O)c3cccc4cccc(c34)C2=O)CC1 | 7.2
